These results are taken from PubChem BioAssay AID1745853 (National Center for Advancing Translational Sciences (NCATS), 2022).

This is one part of the list. Further columns of the screen follow, without active or inactive calls.

Common to all, as to test: Primary Screen for Target Class Profiling of Small Molecule Inhibitors of Methyltransferases
Experiment [1] has as its target Glycine N-methyltransferase (Homo sapiens) (UniProt Q14749). As to conditions: purified enzyme, MTase-Glo SAH luminescence; measured here: GNMT inhibition; at 40 µM; stronger effect = lower value. Put shortly:
(§1)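 Each enzyme was assayed with SAM and its substrate. SAH formation detected by MTase-Glo luminescence; single-point 40 uM screen[…].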

The target of experiment [2] is Guanidinoacetate N-methyltransferase (Homo sapiens) (UniProt Q14353). As to conditions: purified enzyme, MTase-Glo SAH luminescence; measured here: GAMT inhibition; at 40 µM; stronger effect = lower value. Put shortly: as §1
For experiment [3], the target named is Histamine N-methyltransferase (Homo sapiens) (UniProt P50135). As to conditions: purified enzyme, MTase-Glo SAH luminescence; measured here: HNMT inhibition; at 40 µM; stronger effect = lower value. Put shortly: as §1
For experiment [4], the target named is Nicotinamide N-methyltransferase (Homo sapiens) (UniProt P40261). As to conditions: purified enzyme, MTase-Glo SAH luminescence; measured here: NNMT inhibition; at 40 µM; stronger effect = lower value. An outline of the steps:
as §1

For experiment [5], the target named is Phenylethanolamine N-methyltransferase (Homo sapiens) (UniProt P11086). As to conditions: purified enzyme, MTase-Glo SAH luminescence; measured here: PNMT inhibition; at 40 µM; stronger effect = lower value. An outline of the steps:
as §1
% is set by controls: 0 for no effect and ±100 for the full control effect.

With `Cc1nc2c(c(-c3ccc(Cl)cc3)n1)CCN(C(=O)N(C)C)CC2`, the activity change, negative = inhibition is -9.21% in experiment [1]; -4.44% in experiment [2]; 0.189% in experiment [3]; -15.9% in experiment [4]; -4.41% in experiment [5].
Regarding `Cn1cc(CN2CCN(C(c3ccccc3)c3ccccc3)CC2)cc1C#N`, the activity change, negative = inhibition was 3.53% in experiment [2], -29.3% in experiment [4] and -0.164% in experiment [5].
`CCCN(CCC)C(=O)C(CCC(=O)O)NC(=O)c1ccccc1` (stereo unspecified): the activity change, negative = inhibition in experiment [1] is -1.33%; in experiment [2], 7.99%; in experiment [3], 3.84%; in experiment [4] it was -6.11%; in experiment [5] it was 3%.
Consider `CC1=C[C@@H]2[C@@H]([C@@H](O)C[C@@]3(C)[C@H]2C[C@@H](C)[C@]3(O)C(=O)CO)[C@@]2(C)Cc3cnn(-c4ccccc4)c3C=C12`, for which the activity change, negative = inhibition in experiment [1] was -16.9%; in experiment [2], 0.117%; in experiment [3], -3.89%; in experiment [4], -24.3%; in experiment [5], -0.588%.
Take `CCCn1c(=O)c2ccc(C(=O)NC3CCCC3)cc2n2c(SCC(=O)Nc3ccccc3C)nnc12`: the activity change, negative = inhibition in experiment [1] was 2.93%; in experiment [2], 0%; in experiment [3], 3.74%; in experiment [4], -0.73%; in experiment [5] it was 4.96%.
Taken in the same sequence, the figures for `Cc1c(Cl)cccc1N1C(=O)c2cc3sccc3n2CC1(C)C(=O)NC1CCCCCCC1` (stereo unspecified) were 1.71%, 4.22%, 3.36%, 7.4% and -0.405%.
Taken in the same sequence, the figures for `O=C(C[C@@H]1CCNC[C@@H]1Cc1cc(CN2CCCCC2)on1)N1CCN(c2ccccc2)CC1` were -0.041%, 0.627%, -2.77%, 5.1% and -0.431%.
Taken in the same sequence, the figures for `Cc1cccc(CNC(=O)C2(C)Cn3cnc(C(=O)NCc4ccc(F)cc4)c3C(=O)N2C2CC2)c1` (stereo unspecified) were 4.03%, 2.65%, 4.8%, -1.66% and 4.07%.
In the case of `CCn1c(=O)n(CC)c2cc(S(=O)(=O)Nc3cc(C)ccc3OC)c(Cl)cc21`, the activity change, negative = inhibition in experiment [1] was -4.51%; in experiment [2], 3.04%; in experiment [3] it was -4.72%; in experiment [4], -1.24%; in experiment [5], -3.69%.
Taken in the same sequence, the figures for `CC1CCN(C(=O)CCc2nnc3n(Cc4ccc(Cl)cc4)c(=O)c4ccccc4n23)CC1` were -10.3%, 0.478%, -12.5%, -4.63% and -10.5%.
Taken in the same sequence, the figures for `CN1CC(C(=O)N2CCN(Cc3ccccc3)CC2)NC1=O` (stereo unspecified) were 0.187%, 0.792%, 1.67%, -1.55% and -1.57%.
As to `Cc1cccc(N2C(=O)c3cc4occc4n3CC2(C)C(=O)NC2CCCCC2C)c1C` (stereo unspecified), the activity change, negative = inhibition in experiment [1] was -1.62%; in experiment [2], 0%; in experiment [3] it was -0.094%; in experiment [4], 7.03%; in experiment [5], -1.59%.
Taken in the same sequence, the figures for `C=C1CCC2C(OC(=O)C2(O)COC(C)=O)C2C(=C)C(O)CC12` (stereo unspecified) were 0%, 2.52%, 5.08%, -8.88% and 5.12%.
Taken in the same sequence, the figures for `COc1cccc(OC)c1-c1nc(C(=O)N[C@@H](CC(C)C)C(=O)O)cn1-c1ccnc2cc(Cl)ccc12` were -0.178%, 0.628%, 8.53%, -19.8% and 0.189%.
Taken in the same sequence, the figures for `C[C@]1(CO)[C@H]2Cc3sc(-c4ccsc4)nc3[C@@H](CC(=O)Nc3cccc(O)c3)[C@]2(C)CC[C@H]1O` were -15.5%, -10.3%, -21%, -15.4% and -27.9%.
Regarding `Nc1nc(N)c2nc(-c3cccc(O)c3)cnc2n1`, the activity change, negative = inhibition in experiment [2] was -3.34%; in experiment [4] it was -20%; in experiment [5] it was -23.7%.
With `O=C(CCc1nnc2n(Cc3ccccc3Cl)c(=O)c3ccccc3n12)Nc1ccccc1`, the activity change, negative = inhibition in experiment [1] was -6.33%; in experiment [2], -3.6%; in experiment [3], -2.79%; in experiment [4], -13%; in experiment [5], -13.8%.
As to `Cc1ccc(Cn2c(=O)c3ccccc3n3c(-c4cccc(Cl)c4)nnc23)cc1`, the activity change, negative = inhibition in experiment [1] is -4.03%; in experiment [2], 1.84%; in experiment [3], 4.62%; in experiment [4] it was -0.389%; in experiment [5], -2.58%.
On to `COc1ccc(NC(=O)N2CC(N(CC(C)C)C3CCOCC3)C2)cc1F`, for which the activity change, negative = inhibition in experiment [1] is -7.4%; in experiment [2] it was -8.67%; in experiment [3], -3.08%; in experiment [4], -11.9%; in experiment [5], -6.15%.
In the case of `O=C(N[C@H]1CO[C@H]2[C@@H]1OC[C@@H]2Nc1nccc(-c2ccc(-c3ccccc3)cc2)n1)C1CCCCC1`, the activity change, negative = inhibition in experiment [1] was -3.97%; in experiment [2], -7.42%; in experiment [3] it was -3.81%; in experiment [4] it was -10.3%; in experiment [5] it was -9.55%.
Taken in the same sequence, the figures for `CC(C)(C)c1nn2c(SCC(=O)Nc3ccc(Cl)cc3)nnc2[nH]c1=O` were 6.16%, 0%, 9.63%, -2.81% and -4.12%.
Taken in the same sequence, the figures for `COc1ccc(-c2ccc(NC(=O)C3CCCC3)cc2)nn1` were -18.1%, -16.3%, -15%, -13.3% and -22.3%.
On to `CCc1cccc(NC(=O)Cn2nc3n(CC(C)C)c(=O)c4ccc(C(=O)NC(C)C)cc4n3c2=O)c1`, for which the activity change, negative = inhibition in experiment [1] came to 1.96%; in experiment [2] it was 0%; in experiment [3], 8.2%; in experiment [4], 4.06%; in experiment [5] it was 6.32%.
Taken in the same sequence, the figures for `CN1CCC(=C2c3ccccc3CC(=O)c3sccc32)CC1` were -14.2%, 3.82%, -14.1%, -16.3% and 3.61%.
Taken in the same sequence, the figures for `COc1ccc(CN2CCCC(CNC(=O)NC(C)C)C2)cc1O` (stereo unspecified) were 17.7%, 3.98%, 0.844%, 4.13% and -10.9%.
As for `O=C(Cn1ccc2cc(S(=O)(=O)N3CCCC3)ccc21)NCc1ccc2c(c1)OCO2`, the activity change, negative = inhibition in experiment [1] was 3.47%; in experiment [2], 0.947%; in experiment [3] it was -0.171%; in experiment [4] it was -1.54%; in experiment [5], -2.38%.
Taken in the same sequence, the figures for `OC[C@@H]1CNC[C@H]1C1CCN(C2CNC2)CC1` were -0.268%, 0.171%, -4.31%, -4.28% and 10.2%.
Taken in the same sequence, the figures for `COCC(=O)N1CCN(CC(=O)NCc2cccs2)[C@H]2CS(=O)(=O)C[C@H]21` were -4.83%, -4.57%, -3.27%, -9.49% and -0.824%.
Taken in the same sequence, the figures for `O=C([C@@H]1CNC[C@H](C(=O)N2CCN(c3ccncc3)CC2)C1)N1CCOCC1` were -0.289%, -0.181%, -35.7%, -3.39% and -2.53%.
As to `O=c1c2ccccc2n2c(-c3ccccc3)nnc2n1Cc1ccc(F)cc1`, the activity change, negative = inhibition in experiment [1] was -10.2%; in experiment [2], 1.22%; in experiment [3], -2.64%; in experiment [4], -7.86%; in experiment [5] it was -2.57%.
Taken in the same sequence, the figures for `Cc1ncc(Cl)cc1NCc1ccc(C(=O)NC(CC2CCCC2)C(=O)NC2CC2)s1` (stereo unspecified) were 3.45%, 5.53%, 2.08%, -17.2% and -3.08%.
Taken in the same sequence, the figures for `COc1ccccc1N1CCN(CC(O)COc2cccc3ccccc23)CC1` (stereo unspecified) were -11.8%, 0.806%, -2.99%, -14.8% and -5.13%.
Taken in the same sequence, the figures for `CC1(C(=O)NC2CCCC2)Cn2c(cc3sccc32)C(=O)N1Cc1ccccc1F` (stereo unspecified) were -0.783%, 0%, -1.22%, -6.7% and -1.87%.
With `O=C(CCc1nnc2n(Cc3ccccc3)c(=O)c3ccccc3n12)N1CCN(c2ccc(Cl)cc2)CC1`, the activity change, negative = inhibition in experiment [1] is -6.51%; in experiment [2] it was 0%; in experiment [3], 6.93%; in experiment [4] it was 7.37%; in experiment [5], 1.36%.
As to `C=C1C[C@]23C[C@H]1CC[C@H]2[C@]1(C)CCC[C@@](C)(C(=O)O)[C@H]1[C@@H]3C(=O)O`, the activity change, negative = inhibition in experiment [1] is 0.303%; in experiment [2] it was 3.6%; in experiment [3] it was 6.9%; in experiment [4], -7.76%; in experiment [5], -3.46%.
Taken in the same sequence, the figures for `Cc1ccc(CNS(=O)(=O)c2cc3[nH]c(=O)[nH]c3cc2C)cc1` were 5.67%, 1.22%, 0.846%, -2.27% and 2.24%.
Taken in the same sequence, the figures for `CC1=C2C(=O)C=C(CO)C2[C@H]2OC(=O)[C@H](C)[C@@H]2[C@@H](OC(=O)Cc2ccc(O)cc2)C1` (stereo partly specified) were -4.62%, -5.66%, 2.96%, -16.8% and 0.259%.
Taken in the same sequence, the figures for `COc1ccc(NC(=O)c2ncn3c2C(=O)N(C2CC2)C(C)(C(=O)NC2CCCC2)C3)c(OC)c1` (stereo unspecified) were -4.45%, 4.59%, -2.6%, -5.97% and -3.12%.
